Experimental data taken from US9200045B2, “Small molecule-dependent inteins and uses thereof” (President and Fellows of Harvard College, priority 2011, dated 2015).

Tested on: mCherry
Assay: 4-HT-dependent intein splicing in the mCherry context in HEK293 cells
Type: cell-based, human
Settings: HEK293, 37° C., 1 μM 4-HT
Description: p3XFlag-CMV-14 (Sigma) vectors with Gli1-intein (2-4 and 3-2), and Gli3T-intein (2-4 and 3-2) sequences were previously described (Yuen et al., 2006). p3XFlag-CMV-14 mCherry-intein (2-4 and 3-2) vectors were constructed by cloning the 2-4 and 3-2 intein sequences into the pRSET-B mCherry vector provided by Professor Roger Tsien (University of California at San Diego). The mCherry-intein 2-4 and mCherry-intein 3-2 sequences were then amplified using oligonucleotides introducing a 5′ EcoRI site and a 3′ BamHI site and ligated into EcoRI- and BamHI-digested p3XFlag-CMV-14 vector. 30R3-1 intein sequence and 37R3-2 intein sequence were amplified using the following oligonucleotides compatible with mCherry, Gli1, or Gli3 contexts.
HEK293 cells were grown in 10 cm dishes or 6-well plates and transfected with relevant mammalian vectors using Effectene. After growth in the absence of 4-HT or in the presence of 1 μM 4-HT for 24 hours, cells were trypsinized and resuspended in 500 μL of phosphate buffered saline with 1% FBS and 75 U/mL DNase (New England Biolabs). Cell fluorescence analysis was carried out on a BD LSRII cell analyzer.

B1: 30R3-1: evolved 4-HT-dependent intein (RecA intein with estrogen receptor ligand-binding domain), clone from 30° C. evolution, Round 3 (protein)
chain: CLAEGTRIFDPVTGTTHRIEDVVDGRKPIHVVAAAKDGTLLARPVVSWFDQGTRDVIGLRIAGGATVWATPDHKVLTEYGWRAAGELRKGDRVAGPGGSGNSLALSLTADQMVSALLDAEPPIPYSEYDPTSPFSEASMMGLLTNLADRELVHMINWAKRVPGFVDLTLHDQAHLLECAWLEILMIGLVWRSMEHPGKLLFAPNLLLDRNQGKCVEGMVEIFDMLLATSSRFRMMNLQGEEFVCLKSIILLNSGVYTFLSSTLKSLEEKDHIHRALDKITDTLIHLMAKAGLTLQQQHQRLAQLLLILSHIRHMSNKGMEHLYSMKYKNVVPLYDLLLEMLDAHRLHAGGSGASRVQAFADALDDKFLHDMLAEGLRYSVIREVLPTRRARTFDLEVEELHTLVAEGVVVHNC
Question: B1 was tested. Which “spliced mCherry protein” value (after 12 hours) did it give?
Answer: The value was 33%.

Question: And the “spliced mCherry protein” value (after 24 hours)?
Answer: The value was 54%.
